Positions of bridges follow the written chain, without caps; N, C: chain ends. No end group written: not given here.
How the values were obtained:
[1] = system: Primitive BFU-E; assay: 3H-thymidine suicide assay of primitive BFU-E in adherent layer of human LTC (Table 7); type: cell-based; conditions: None: 48 +/− 4
Text: (§1) Primitive high proliferative potential colony forming cells (HHP-CFC) in an adherent layer in culture are usually in a quiescent state. This long term culture (LTC) is established seven to ten days after initiation of the LTC. The cells may be stimulated to proliferate by the addition of fresh medium. Both BFU-E (burst forming unit—erythroid precursor) cells and CFU-GM (colony forming unit—granulocyte-monocyte common precursor) cells of LTC may be maintained in a quiescent state by the mesenchymally derived stromal cells in an adherent layer, but can be reversibly stimulated into the cycle by the addition of fresh media. The ability of CXCR4 agonists such as SDF-1 and SDF-1 polypeptides to overcome this activation may be determined by adding it to the LTC during the medium change. Rapidly dividing cells will accumulate proportionally more of a cytotoxic agent, such as radioactive thymidine, and as a result are preferentially killed.
(§2) The results depicted in Table 7 illustrate the ability of SDF-1, and SDF-1(1-14)-(G)4-SDF-1(55-67)-Lys20/Glu24-cyclic amide (SEQ ID NO:809) and SDF-1(1-14)-(G)4-SDF-1(55-67) acid (SEQ ID NO:806) to repress the proliferation of clonogenic erythroid and granulopoitic progenitors (which differentiate into erythrocytes, platelets, monocytes/macrophages and neutrophils) in an in vitro LTC-IC (long-term culture-initiating cells) assay. […]

[2] = system: Primitive CFU-GM; assay: 3H-thymidine suicide assay of primitive CFU-GM in adherent layer of human LTC (Table 7); type: cell-based; conditions: None: 44 +/− 3
Text: as §1, §2

[3] = biological target: T1, CXCR4 receptor (Homo sapiens, UniProt P61073); assay: [Ca2+]i mobilization in fura-2,AM loaded THP-1 cells (FIG. 5, Table 6); type: cell-based; conditions: 1×10^6/ml
T1 construct: incubation of THP-1 cells with SDF-1; endogenous in cells; host or cells: THP-1 cells
T1 sequence (P61073 whole entry): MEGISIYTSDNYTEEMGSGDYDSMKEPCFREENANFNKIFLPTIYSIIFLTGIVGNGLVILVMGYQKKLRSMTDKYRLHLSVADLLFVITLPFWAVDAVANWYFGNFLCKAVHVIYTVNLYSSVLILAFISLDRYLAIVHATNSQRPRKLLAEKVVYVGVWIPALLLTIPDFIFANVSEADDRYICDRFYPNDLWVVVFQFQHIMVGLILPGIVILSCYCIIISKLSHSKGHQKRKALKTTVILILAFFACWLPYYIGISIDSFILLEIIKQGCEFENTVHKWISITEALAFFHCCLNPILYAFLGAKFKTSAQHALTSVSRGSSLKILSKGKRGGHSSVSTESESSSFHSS
Procedure: Fura-2,AM loaded THP-1 cells (1×10^6/ml) were stimulated with SDF-1, Compound A or Compound K at the concentrations indicated. The values represent the mean ± one S.D. of n=3 experiments.
Fura-2,AM loaded THP-1 cells (1×10^6/ml) were stimulated with native SDF-1 and the SDF-1 peptide analogs at the concentration of native SDF-1 concentration that gave the maximum [Ca^2+]1 stimulation (1 μM). The values represent the mean ± one S.D. of n=3 experiments.
This example illustrates the efficacy of SDF-1 and SDF-1 peptide analogs in mediating intracellular calcium mobilization ([Ca^2+]i). To illustrate that the binding of SDF-1 and SDF-1 peptide analogs results in the agonistic induction of the CXCR4 receptor, [Ca^2+]i mobilization assays were conducted, the results of which are shown in FIG. 5. To obtain the data shown in FIG. 5, fura-2,AM loaded THP-1 cells (1×10^6/ml) were stimulated with Compound A/SDF-1, SDF-1(1-14)-(G)4-SDF-1(55-67) Lys20/Glu24-cyclic amide (SEQ ID NO:809) or Compound K/SDF-1(1-14)-(G)4-SDF-1(55-67)-Glu24/Lys28-cyclic amide (SEQ ID NO:803) at the concentrations indicated (the values represent the mean ± one S.D. of n=3 experiments). […] The EC50 values (the concentration of ligand necessary to effectively induce 50% of the full [Ca^2+]i mobilization potential) for SDF-1(1-14)-(G)4-SDF-1(55-67) acid (SEQ ID NO:806), SDF-1(1-14)-(G)4-SDF-1(55-67)-Lys20/Glu24-cyclic amide (SEQ ID NO:809) or SDF-1(1-14)-(G)4-SDF-1(55-67)-Glu24/Lys28-cyclic amide (SEQ ID NO:803) and native SDF-1 is shown in Table 6: […]

[4] = system: Primitive Granulocyte bone marrow progenitor cells; assay: 3H-thymidine killing of primitive granulocyte bone marrow progenitor cells; type: cell-based, human; conditions: Table 5, no drug 42 +/− 3
[5] = system: Mature Granulocyte; assay: 3H-thymidine killing of mature granulocyte bone marrow cells; type: cell-based, human; conditions: Table 5, no drug 48 +/− 3
[6] = stability in human plasma (Table 3); type: in vitro ADME; conditions: 37° C
Procedure: This example illustrates the stability of SDF-1 chemokine analogs (as represented by Compound A (SEQ ID NO:809) and Compound B (SEQ ID NO:810)) in human plasma.
Fresh blood was collected into heparinized tubes and spun down at room temperature for 15 minutes at 1500 g, and the plasma was removed and placed in another tube. The plasma was then cooled to 4° C. by incubation on ice, and centrifuged for 15 minutes at 1500 g at 4° C. The plasma was recovered and used immediately and the leftover was frozen at −20° C.
Fractions of 0.5 ml of human plasma were aliquoted in eppendorf tubes and incubated in a heated bath at 37° C. A quantity of 200 μg of Compound B (SEQ ID NO:810) or Compound A (SEQ ID NO:809) in water (10 μg/μL in water) was added subsequently to each fraction and incubated for T=0, 5, 10, 20, 30, 60, 120, 240, 360 and 420 minutes. At the end of the incubation, the fractions were quenched by the addition of 0.20 ml 1M trifluoroacetic acid (TFA) and the tubes agitated gently and kept on ice for 10 minutes. The tubes were then diluted further with 200 μL of a 0.05% solution of TFA.
The samples were then centrifuged at 5000 rpm for 45 min at 4° C. The supernatants were extracted on solid phase.
Sep-pak C 18 cartridges (VWR #BJ9000, 100 mg, 1 ml, octadecyl column C18)) were preconditioned with 80% acetonitrile/0.1% TFA (5×1 ml) followed by TFA 0.05% (5×1 ml). The quenched (acidified) plasma samples were aspirated and applied to the column, and washed with 2×1 ml of TFA 0.05% (eluate discarded) followed by extraction with 5×1 ml of (80% acetonitrile/0.1% TFA). The samples were then frozen and lyophilized.
Dry residue was resuspended in 200 μL of (20% acetonitrile/0.1% TFA) and spun down in a centrifuge to clarify the sample by centrifugation at 5000 rpm for 15 minutes at 22° C. before loading 50 μL on HPLC.
HPLC analysis was performed on the Gilson using the following column, mobile phase, and detection systems.

[7] = system: Primitive Erythroid bone marrow progenitor cells; assay: 3H-thymidine killing of primitive erythroid bone marrow progenitor cells; type: cell-based, human; conditions: Table 5, no drug 47 +/− 4

Q: For “SDF-1(1-14)-(G)4-SDF-1(55-67) acid (KPVSLSYRCPCRFFGGGGLKWIQEYLEKALN-OH; cysteine pairing not given here) [Compound L]”, which “% CELL KILLED after 3H-Thymidine” value ([1]; 1 μg/ml) is on record?
A: 24 +/− 6%

Q: And the “% CELL KILLED after 3H-Thymidine” value ([1]; 10 μg/ml)?
A: 0 +/− 2%

Q: And the “% CELL KILLED after 3H-Thymidine” value ([2]; 1 μg/ml)?
A: 22 +/− 7%

Q: What about the “% CELL KILLED after 3H-Thymidine” value ([2]; 10 μg/ml) of the same substance?
A: 0 +/− 0%

Q: What about the EC50 [3] of the same substance?
A: 188 nM

Q: Which EC50 [3] does the source give for “Stromal cell-derived factor-1 [SDF-1, reference compound]” here?
A: 26.6 nM

Q: With “SDF-1(1-14)-(Gly)4-SDF-1(55-67)-Glu24/Lys28-cyclic amide (KPVSLSYRCPCRFFGGGGLKWIQEYLEKALN; lactam 24-28; cysteine pairing not given here) [Compound K]” as the substance, how does the EC50 [3] read?
A: 106 nM

Q: With “H2N-Lys-Pro-Val-Ser-Leu-Ser-Tyr-Arg-Ala-Pro-Phe-Arg-Phe-Phe-[Gly-Gly-Gly-Gly]-Leu-Lys-Trp-Ile-Gln-Glu-Tyr-Leu-Glu-Lys-Ala-Leu-Asn-NH2 (H-KPVSLSYRAPFRFFGGGGLKWIQEYLEKALN-NH2; also: cyclic bridge, places not given here) [Compound B]” as the substance, how does the “% CELL KILLED” value [4] read?
A: −11 +/− 7%

Q: And the “% CELL KILLED” value [5]?
A: 44 +/− 6%

Q: And the “Percentage of compound remaining in plasma” value ([6]; 0 min)?
A: 100%

Q: And the “Percentage of compound remaining in plasma” value ([6]; 5 min)?
A: 67%

Q: What about the “Percentage of compound remaining in plasma” value ([6]; 10 min) of the same substance?
A: 56%

Q: What about the “Percentage of compound remaining in plasma” value ([6]; 20 min) of the same substance?
A: 67%

Q: What about the “Percentage of compound remaining in plasma” value ([6]; 30 min) of the same substance?
A: 56%

Q: And the “Percentage of compound remaining in plasma” value ([6]; 60 min)?
A: 77%

Q: What about the “Percentage of compound remaining in plasma” value ([6]; 120 min) of the same substance?
A: 52%

Q: What about the “Percentage of compound remaining in plasma” value ([6]; 240 min) of the same substance?
A: 43%

Q: And the “Percentage of compound remaining in plasma” value ([6]; 360 min)?
A: 26%

Q: What about the “Percentage of compound remaining in plasma” value ([6]; 420 min) of the same substance?
A: 17%

Q: And the “% CELL KILLED” value [7]?
A: −7 +/− 6%

Source: patent publication US20050059584A1, “Novel chemokine mimetics synthesis and their use” (priority 2002, published 2005)
